# The campaign covered roughly 45,000 compounds. About 200 (0.44%) were called active. About 7% were inconclusive and are not listed. Calls follow the shape of the dose curve; as a rule, active = well fitted activation curve with a large enough effect; inconclusive = small, poorly fitted or top-dose-only effect; inactive = no such curve, though single readings can be large or run the other way. The list shows a part of the results.
# Assay: qHTS of TDP-43 Inhibitors: NCGC Sytravon Library Screen; also: 0% is about no effect; nearly all actives have a fitted effect of over 55% in size
# Conditions: yeast TDP-43 toxicity rescue, BacTiter-Glo growth, 24 h; series mostly up to 46.1 µM; growth rescue (activation): at the top concentration
# Outline: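 TDP-43-expressing yeast, pregrown in raffinose, seeded at OD600 0.02 in galactose medium with compound for 24 hr at 30 deg C. Growth read by BacTiter-Glo luminescence, so rescue of toxicity appears as activation.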
row,SMILES,growth rescue (activation)
1,COc1ccc([N+](=O)[O-])cc1NC(=O)CC1SC(=Nc2cccc(C)c2C)N(/N=C/c2cccc(OC)c2OC)C1=O (stereo unspecified),inactive: 17.9%
2,CCc1cc2c(SCC(=O)NC3CCS(=O)(=O)C3)ncnc2s1 (stereo unspecified),inactive: 7.25%
3,O=S(=O)(NC1CCCCC1Sc1ncccn1)c1ccc(Cl)cc1 (stereo unspecified),inactive: 25.4%
4,COc1ccc(C(=O)NNC(=O)C(=O)NC2CCCCC2)cc1,inactive: 9.07%
5,CN(C(=S)Nc1cccnc1)c1ccc(O)cc1,inactive: -7.04%
6,COc1ccc(N(C(=O)COc2ccc(C)cc2)S(=O)(=O)c2ccc(C)cc2)cc1,inactive: 22.5%
7,CS(=O)(=O)c1ccc(Cl)c(C(=O)NC2CCSc3ccccc32)c1 (stereo unspecified),inactive: -11.3%
8,COCCNC(=S)N(C)C1(c2ccccc2Cl)CCCCC1=O (stereo unspecified),inactive: 5.88%
9,Cn1cccc1-c1cc(C(=O)N/N=C/c2ccc([N+](=O)[O-])cc2)[nH]n1,inactive: 12.8%
10,COc1ccc(-c2cnc3c(NC=O)cc(-c4ccc(S(C)(=O)=O)cc4)cn23)cc1OC,inactive: -8.35%
11,COC(=O)c1nn(-c2ccccc2)c(Sc2ccccc2)c1/C=N/O,inactive: -19.2%
12,Cc1cc(C)cc(Nc2c(F)c(F)c(F)c(F)c2C(=O)O)c1,inactive: 4.53%
13,O=C1CC(c2ccccc2)CC2=C1C=Nc1ccccc1N2 (stereo unspecified),inactive: 20.4%
14,CN1C/C(=C/c2cccs2)C(=O)/C(=C\c2cccs2)C1,inactive: 4.26%
15,O=C(c1ccccc1)c1cccs1,inactive: -4.02%
16,CCn1ccnc1CN(C)Cc1nc(-c2ccccc2)no1,inactive: 14%

row,SMILES,growth rescue (activation)
1,COc1ccc(NS(=O)(=O)c2cccc(NC(=O)CNC(C)=O)c2)cc1,inactive: 10.6%
2,CCOC(=O)c1ccc(NC(=O)NCc2ccccc2)cc1,inactive: 14.8%
3,O=C(NCc1ccccn1)c1cc(Br)ccc1Cl,inactive: 3.37%
4,O=C(CCN1CCN(Cc2ccccc2)CC1)Nc1ccccc1Cl,inactive: 20.5%
5,O=C(O)CC1Sc2nc3ccccc3n2C1=O (stereo unspecified),inactive: 17%
6,Cn1c(SCC(=O)NNC(=O)Cc2ccccc2)nnc1-c1ccccc1,inactive: 2.16%
7,COC(=O)C1=CN(C)C=C(C(=O)OC)C1c1ccsc1,inactive: 11.1%
8,O=C(CNC(=O)C(c1ccccc1)c1ccccc1)N/N=C\c1ccc2c(c1)OCO2,inactive: -2.98%
9,Cc1cc(C)cc(N(C(=O)c2ccccn2)C(C(=O)NC2CCCCC2)c2ccncc2)c1 (stereo unspecified),inactive: -10.4%
10,Cc1ccc(NC(=O)Nc2c(C)[nH]c(=O)[nH]c2=O)cc1Cl,inactive: -13.5%
11,CCC(=O)OCc1cc(=O)oc2ccc3ccccc3c12,inactive: -16.8%
12,CC(=O)N(Cc1cc(=O)[nH]c2ccccc12)c1ccc(C)cc1,inactive: 5.82%
13,Cc1ccc(NC(=O)c2sc(C)nc2C)c(C)c1,inactive: 13%
14,CC(=O)C1=C(C)NC2=C(C(=O)CC(C)(C)C2)C1C (stereo unspecified),inactive: 7.05%
15,COCCSc1ccccc1C(=O)Nc1ccc(Cl)cn1,inactive: 10%

# From PubChem BioAssay AID1347073 (National Center for Advancing Translational Sciences (NCATS), 2019)
